About 540 (0.36%) of roughly 150,000 compounds showed an effect of 50% or more. The list shows a part of the results.

This assay deals with Plasmodium falciparum. Put plainly: Primary screen in NF54 nanoGlo assay, in single point, at 2uM, 72h; a lower Z score goes with more inhibition. It is filed as functional, Erythrocyte. As to conditions: timepoint 72 hour.
As for `C[C@@H](CC(=O)OCC(C)(C)C)N1CCCCC1=O`, the “% Inhibition” value is given as -4% and the Z score is given as 0.52.
For the molecule `Cc1cnc(C(C)NC(=O)N2CCOCC2c2ccccc2)s1` (stereo unspecified), the “% Inhibition” value was -13% and the Z score is given as 1.07.
As for `Cc1ccc(N(C)CC2(CO)CC2)nn1`, the “% Inhibition” value was -4% and the Z score came out at 0.5.
On to `Cc1ccc(S(=O)(=O)c2cn(Cc3ccccc3)c3cc(N4CCCCC4)c(F)cc3c2=O)cc1`, for which the “% Inhibition” value is recorded as -24% and the Z score was found to be 2.28.
Take `CC(=O)N[C@@H]1C[C@H](Cc2ccccc2)O[C@H](c2cc(C(C)(C)C)[nH]n2)C1`: the “% Inhibition” value is -2% and the Z score amounted to 0.27.
The corresponding values for `Cn1c([C@@H]2CCCO2)nc2cc(NC(=O)CC3CCCC3)cc(C(=O)NCCN3CCOCC3)c21` are -2% and 0.31.
The like results for `CCN=C(NCC)NCc1cc2sccc2s1` were, in that order, 4% and -0.7.
In the case of `O=C(C1CCCCCCC1)N1CCCC1`, the “% Inhibition” value was determined as 3% and the Z score is reported as -0.46.
The like results for `Cn1c(Cn2ccnc2)nnc1C1CCN(C(=O)c2cccc(F)c2)CC1` were, in that order, -14% and 2.56.
For the molecule `CC(Cc1cccs1)NS(=O)(=O)CC1CCN(C(=O)OCc2ccccc2)C1` (stereo unspecified), the “% Inhibition” value was found to be 0% and the Z score is -0.08.
The corresponding values for `COc1ccc(OC)c(-c2cnc(-c3ccc(CNC(=O)c4ccc(C(F)(F)F)c(F)c4)cc3)[nH]2)c1` are 16% and -2.15.
The like results for `O=C(c1cnn2ccc(C3CCN(S(=O)(=O)Cc4ccccc4Cl)CC3)cc12)N1CCCC1` were, in that order, -10% and 1.17.
The like results for `Cc1c(C(=O)NCCc2ccc(Cl)s2)cnn1C` were, in that order, 1% and -0.28.
For the molecule `COc1ccc(C(=O)C(=O)Nc2c(F)cc(F)cc2-c2ccccc2)cc1`, the “% Inhibition” value was -3% and the Z score is 0.32.
For the molecule `OC1(Cc2ccc(F)cc2F)CC2CCC(C1)N2c1nc(C(F)(F)F)cs1` (stereo unspecified), the “% Inhibition” value came to 0% and the Z score is 0.03.
Regarding `Cc1cc(NC(=O)NCC2CCN(C)CC2)cc(N2CCN(C)CC2)c1`, the “% Inhibition” value is -18% and the Z score worked out at 2.32.
The corresponding values for `CC(=O)N1C[C@H]2CCN(C(=O)c3cc(F)ccc3F)C[C@@]2(CO)C1` are -5% and 0.74.
The like results for `C#CCOC(=O)CCNC(=O)C1CCCC1` were, in that order, -7% and 0.88.
The like results for `O=C(c1cn[nH]c1)N1CCC[C@H](Nc2cccc(Br)c2)C1` were, in that order, -17% and 2.19.
In the case of `N#Cc1cnn(-c2ccc(NC(=O)C3CCC3)cc2)c1N`, the “% Inhibition” value is listed as -9% and the Z score was 1.08.
The like results for `CC(C)[C@@H](NS(=O)(=O)C1CC1)c1nc(-c2ccncc2)no1` were, in that order, -3% and 0.3.
The like results for `CC(C)CC(C)OC(=O)C1CC(=O)N(C2CCS(=O)(=O)C2)C1` (stereo unspecified) were, in that order, 10% and -0.98.
The corresponding values for `O=C1C[C@H](NS(=O)(=O)N2CCCCC2)CN1CCCc1ccccc1` are -23% and 2.07.
Consider `CN1CCN(C[C@H]2CC[C@@H](Cc3ccc(OC(F)(F)F)cc3)O2)CC1`, for which the “% Inhibition” value is given as -2% and the Z score is 0.43.
The like results for `COc1ccc2c(c1)CCc1c(C(=O)Nc3ccc(C(C)C)cc3)n[nH]c1-2` were, in that order, -1% and 0.19.
The like results for `O=C(N[C@H]1CCOC[C@@H]1OCc1cscn1)c1cccc(-c2ncc[nH]2)c1` were, in that order, -13% and 1.67.
`COCC1(CNc2nccc(N)n2)CCCC1`: the “% Inhibition” value is reported as 7% and the Z score is on record as -1.07.
On to `COCCOC(=O)N1CCC2(CC1)CC(=O)N(Cc1ccc(Cl)cc1)C2`, for which the “% Inhibition” value is given as 4% and the Z score is -0.78.
The like results for `Cc1ccccc1CNC(=O)[C@]1(C)Cn2nc(-c3ccco3)cc2C(=O)N1Cc1ccccc1C` were, in that order, 7% and -1.09.
As to `Cn1ccnc1CN1C[C@@H](F)C[C@H]1CNc1ncnc2c1CCCCC2`, the “% Inhibition” value is on record as -4% and the Z score is 0.8.
The like results for `Cc1cc(COC(=O)c2cscn2)nc(C)n1` were, in that order, -7% and 0.94.
The like results for `CCOC1CC(NC(=O)OC(C)(C)C)(C(=O)O)C1(C)C` (stereo unspecified) were, in that order, 1% and -0.26.
The like results for `CCc1cc(C(=O)N2CCOc3c(F)ccc(F)c32)n(C)n1` were, in that order, -10% and 1.81.
Regarding `COc1ccccc1CCNC(=O)c1nc(C)ns1`, the “% Inhibition” value is -10% and the Z score is 1.59.
For `Cc1cc(C2CCN(c3ncnc(-c4cccc(F)c4)n3)CC2)[nH]n1`, the “% Inhibition” value is reported as -14% and the Z score is recorded as 1.17.
The corresponding values for `COc1cc2ncn([C@H]3[C@@H]4OC[C@@H](O4)[C@@H](NCc4nccs4)[C@@H]3O)c2cc1OC` are 0% and 0.05.
In the case of `c1ccc(NCCCN[C@H]2COCc3ncccc32)cc1`, the “% Inhibition” value is recorded as -9% and the Z score worked out at 1.22.
Turning to `C[C@]1(O)CCN(c2nc(-c3ccccc3)no2)C[C@H]1Cc1ccccc1`, the “% Inhibition” value worked out at 4% and the Z score is reported as -0.53.
With `CCC[C@H]1CN(C(=O)c2cc3c(cc2C)OCCO3)C[C@@H]1N`, the “% Inhibition” value was -7% and the Z score was determined as 0.95.
The corresponding values for `C[C@H]1CN(C(=O)c2ccc(C#N)s2)CC2(CCC2)O1` are -5% and 0.97.
The like results for `Cc1nonc1CC(=O)N[C@H]1COCC[C@@H]1Oc1ccccn1` were, in that order, 14% and -1.78.
Turning to `CC(C)NC(=O)N1CCC[C@H]1C(=O)N1CC(CC(F)F)C1`, the “% Inhibition” value is on record as -8% and the Z score is recorded as 1.57.
For `Cc1ccc(-n2nc(C)c3nc(CCC(=O)NCCN(C)C)c(=O)n(C)c32)cc1`, the “% Inhibition” value was found to be 9% and the Z score is reported as -1.32.
The corresponding values for `Cc1nn(C)c(C)c1-c1cc(-c2c(F)cccc2Cl)nc(CC(N)=O)n1` are 1% and -0.25.
For `C[C@H]1CN2C=NC(N3CCN(C(=O)c4ccccc4)CC3)=CC2=N1`, the “% Inhibition” value was -3% and the Z score was determined as 0.63.
`COc1ccc(-n2cc(-c3cccc(OC)c3)nc2NC(=O)CN(CC2CC2)C(=O)C(C)C)cc1`: the “% Inhibition” value was -7% and the Z score is 1.05.
The corresponding values for `O=C(Nc1cc(Cl)cc(Cl)c1)C(F)(F)F` are -8% and 0.87.
The corresponding values for `Cc1cc(C(=O)NC2(c3ccccc3F)COC2)no1` are 7% and -1.46.
For `CC(=O)N1CCN(C(=O)c2cnn(-c3ncc(C)c(-c4ccc(F)cc4)n3)c2-c2cccs2)CC1`, the “% Inhibition” value is given as -19% and the Z score is 2.51.
Take `COc1cc(-c2nc(=O)c(CCC(=O)NC3CC3)n[nH]2)ccc1OCc1cccc(F)c1`: the “% Inhibition” value is on record as 24% and the Z score is recorded as -3.45.
The like results for `CCCN1CCN(C(=O)Cc2ccon2)c2cc(F)ccc21` were, in that order, -3% and 0.56.
The corresponding values for `CC(C)c1cc(CN(C)c2cc([C@H]3C[C@H](N)C3)ncn2)on1` are -9% and 1.63.
The corresponding values for `CC[C@H](NC1CCCCCC1)c1nc(C)c[nH]1` are -1% and 0.1.

A word on the % Inhibition: it is the drop in the measured response relative to a control, in per cent.

Values taken from ChEMBL document CHEMBL4888484, “Replenishing the malaria drug discovery pipeline: Screening and hit evaluation of the MMV Hit Generation Library 1 (HGL1) against asexual blood stage Plasmodium falciparum ,using a nano luciferase reporter read-out” (2022).
